Test results published in ChEMBL document CHEMBL4888484, “Replenishing the malaria drug discovery pipeline: Screening and hit evaluation of the MMV Hit Generation Library 1 (HGL1) against asexual blood stage Plasmodium falciparum ,using a nano luciferase reporter read-out” (2022).
The campaign covered roughly 4,800 compounds. About 420 (8.8%) showed an effect of 50% or more. Some of the results follow. Where a SMILES comes first, the peptide text is derived from it. The star is where a group is joined. NHPhenethyl = c1ccc(CCN*)cc1

Test system: Plasmodium falciparum
Experiment: Confirmatory screen in NF54 nanoGlo assay, in single point, at 2uM, 72h
Format: functional, Erythrocyte
Settings: timepoint 72 hour

Compound	% Inhibition [%]
CCC(CC)C(=O)c1c[nH]c(C(N)=O)c1	-12
O=C(COc1nnc2ccccn12)NC1CCCCCC1	-4
COc1ccc(C(=O)Nc2nnc([C@H]3CC(=O)N(c4ccc(C)cc4)C3)o2)cc1OC	-16
CCCn1c(C)ccc(-c2noc(CCC(=O)NC3CCCC3)n2)c1=O	-6
O=C(COc1ccc(Cl)cc1Cl)Nc1onc2c1CCC2	18
COc1ccsc1S(=O)(=O)N1CCC(n2ccnc2)CC1	-3
Cc1ccccc1[C@H]1CCN(c2ccc(NC(=O)c3ccc(Cl)cc3)c(C(=O)O)c2)C1	-11
O=C1CC(C(=O)NC[C@H]2C[C@@H]2C2CCC2)CN1 (stereo partly drawn)	-5
c1ccc2c(CCNC3(c4nnnn4CCCN4CCOCC4)CCCC3)c[nH]c2c1	0
Cc1oc(-c2ccc(C(=O)N3CCN(c4ccccc4)CC3)cc2)nc1CN1CCC(C)CC1	38
COc1ccc(-c2cn(-c3ccc(OC)cc3)c(N)c2C#N)cc1	-7
Cc1ccc(OCCNc2cc([C@H]3C[C@H](N)C3)nc(C3CC3)n2)cc1C	31
Cc1nc2sc(C(=O)Nc3ccc4ccccc4c3)c(N)c2c(C)c1C	2
CNC(=O)NCc1ccccc1S(C)(=O)=O	-8
Cc1ccc(S(=O)(=O)Cc2nc(-c3ccc(C(=O)NCc4ccc(C)o4)cc3)oc2C)cc1	-18
Cc1cccnc1C(F)(F)C(=O)Nc1cc(C)c(O)c(C)c1	4
Cc1ccccc1S(=O)(=O)N1CCN(c2c(C)n(-c3ccccc3)c(=O)n(CC(C)C)c2=O)CC1	7
COc1cc(C(=O)Nc2[nH]c(=O)ncc2F)ccc1Cl	81
Cc1ccc(CCC(=O)N2CC[C@H](C)S(=O)(=O)CC2)s1	0
O=C(Nc1ccccc1)OCc1ccc(-c2ccc(Cl)cc2)o1	4
CC[C@@H](CO)NCc1cccc(OC)c1OCC(=O)NC(C)(C)C	-8
OCCNCc1c(Cl)cccc1Cl	-1
C[C@H](NC(=O)C1CC1c1ccccc1)[C@H](O)c1ccc2c(c1)OCO2 (stereo partly drawn)	5
N#Cc1c(-c2ccco2)ccn(Cc2ccc(F)cc2)c1=O	-5
C[C@H]1CN(c2ccc(N(C)C)cc2)C(=O)NC1=O	3
Cc1ccc(NC(=O)COC(=O)c2nccc3ccccc23)cc1	-3

Compound	% Inhibition [%]
CC[N+](CC)(CC(=O)OC1CC2CCC1(C)C2(C)C)CC(=O)OC1CC2CCC1(C)C2(C)C (stereo not drawn)	83
Cc1ccc(NC(=O)Cn2cnc3nc(N(C)Cc4ccccc4)sc3c2=O)c(Br)c1	-14
C[n+]1ccccc1/C=C/c1c[nH]c2ccccc12	90
CC(NC(C)C1CN(C(=O)OC(C)(C)C)C1)c1ccccc1Br (stereo not drawn)	0
CCc1c(C)nn2c(c1C)c(-c1ccccc1)[n+]1c(C)c(CC)c(C)nc21	49
CN(C)Cc1ccc(NC(=O)c2cc(F)cc3c(=O)c4cc(F)ccc4[nH]c23)cc1	79
N#Cc1ccc(NCCc2ccc(O)cc2)cn1	-9
COc1ccc(OC)c(NC(=O)c2c(C)noc2-c2ccc(Cl)cc2)c1	9
Cc1ncsc1-c1nc(CNc2ccc(C(F)(F)F)cc2Cl)no1	-19
CCCC[C@H](CC)C(=O)NC1CCCCC1	2
O=C(CCC1CCCC1)N1CCC(N2CCCCCC2)CC1	6
COCc1nn2c3c(nnc2c1-c1ccccc1)C(=O)CC(C)(C)C3	2
CC1(C)C[C@@H](NC(=O)c2cc3[nH]cnc3cc2F)CCO1	7
O=C1CN(C(=O)c2ccc(-c3ccccc3F)o2)c2ccccc2N1	-9
CCc1ncsc1C(=O)N(C)[C@@H]1CCC[C@H]1O	-12
CC(C)c1ccc(S(=O)(=O)Nc2ccc3nc(NC(=O)c4ccccc4)sc3c2)cc1	0
CC(C)(C)OC(=O)N1CCC(Cn2nccc2N)CC1	-6
COc1ccc(CN(Cc2ccncc2)CC2CCN(C3CCN(C)CC3)CC2)c(F)c1	85
S=c1oc2ccccc2n1CNC1CCCCC1	1
CCC(=O)OC1(C#CCOc2ccc(OC)cc2)CCN(C)CC1	1
CCOc1cc(C(=O)N[C@H]2CCS(=O)(=O)C2)cc2occc12	-6
Cc1cc(O)nc(CN2CC(C)CC(C)C2)n1 (stereo not drawn)	-8
CCOc1c(CNC[C@H](C)O)cc(Br)cc1OC	-1
O=S(=O)(c1ccc(Br)o1)N1CCCC[C@H]1c1ncc[nH]1	-6
O=C1CCN(C(=O)C2(c3cccc(Cl)c3)CCCC2)CCN1	2
Oc1ccc(-c2nnc(-c3ccc(O)cc3)nn2)cc1	51

Compound	% Inhibition [%]
C[C@@H]1C[C@@H](Nc2ccccc2)c2ccccc2N1C(=O)COc1ccc(Br)cc1	-7
CC(C)(C)c1cc(CN2CCN(S(N)(=O)=O)CC2)n[nH]1	9
C[C@H]1CCCCN1S(=O)(=O)c1ccc(-c2ccc(Cl)cc2)cc1	1
CCc1ccc(C(NC(=O)N2CC3C4CCC(O4)C3C2)C(C)(C)C)o1 (stereo not drawn)	-14
CCOc1ccc(Cn2cncn2)nc1	-4
O=S(=O)(C1CC1)N1CC[C@H](CO)C1	-6
CC(C)(NC(=O)CC1(O)CCCCC1)C(=O)Nc1ccccc1	-1
Cc1c(N2CCC(C(=O)NC[C@H]3CCCO3)CC2)c(=O)n(CC(C)C)c(=O)n1-c1ccccc1	-7
Cc1csc([C@@H](C#N)C(=O)c2ccncc2)n1	-11
NC(=O)c1ccc(NC(=O)N2CCc3c(F)ccc(F)c3C2)c(F)c1	-12
Cc1cc(=O)n(Cc2ccccc2)c2c(C)cccc12	1
Cc1ccc(Nc2ccc(N3CCNCC3)nn2)nc1	35
Cc1ccccc1N1CCN(C(=O)c2ccc3ncccc3c2)CC1	-4
CNc1nc(C)cc(C(=O)Nc2ccnn2C[C@H]2CCOC2)n1	-8
Cc1cc(NC(=O)C(C)N2CCOC(c3nc(C(C)C)n[nH]3)C2)on1 (stereo not drawn)	0
COc1cccc(CNC(=O)[C@H]2CCCN(c3nc4cccnc4n(C)c3=O)C2)c1OC	-1
C=C1C(C)C2C(Cc3c[nH]c4ccccc34)NC(=O)C23C(=O)CC(O)C(O)CC(C)C/C=C/C3C1O (stereo not drawn)	44
Cc1ccccc1N1C(O)=Nc2ccccc2S1(=O)=O	-12
O=C(Nc1cnc2ccccc2c1)c1ccccc1C(=O)c1ccc(F)cc1	96
CC1(C)N=C(c2ccc(C(C)(C)C)cc2)C(=O)N1	2
O=C(CN1CCC[C@H](O)C1)NCC1(N2CCOCC2)CCCCC1	-14
N#Cc1cc(Br)cc(Cl)c1O	0
Cn1c(=O)c2c(nc3nc(N4CCOCC4)n(CC(=O)c4ccc(Cl)cc4)n32)n(C)c1=O	-4
CC(N)C(=O)NC(C)C(=O)NCCc1ccccc1 (stereo not drawn) (H-Ala-Ala-NHPhenethyl; configuration not given here)	-5
Cc1cccc(CN(Cc2ccccn2)C(=O)Cn2c(C)cc(O)cc2=O)c1	3
Cc1ccc(S(=O)(=O)N2C[C@@H]3CCCN3c3ccc(C(F)(F)F)cc32)cc1	-15

Compound	% Inhibition [%]
COc1cc(N)ccc1OCC(F)F	2
O=C(c1ccccc1)c1ccc2n1CC[C@H]2C(=O)Nc1ccccc1C(F)(F)F	6
Cc1nc([C@H](C)NC(=O)c2ccc(S(C)(=O)=O)cc2)cs1	3
Nc1nccnc1C(=O)N(Cc1ccccc1)C[C@]1(O)CCc2ccccc21	-9
COc1ccc(Nc2nnc(-c3ccc(NC(=O)C(=O)NCCCn4ccnc4)cc3)s2)cc1	56
Cc1nnc(-c2ccc3ccn(CC(=O)Nc4ccc(F)c(Cl)c4)c3c2)o1	78
COc1nc(NC2CCS(=O)(=O)CC2)ncc1F	75
Cc1noc(NCc2ccc(Cl)cc2)n1	39
CC1(C)COCCN1C(=O)Cc1cnn(-c2ccccc2)n1	1
CC(C)CC(=O)Nc1ccc2c(c1)C(N1CCC(C)CC1)=Nc1ccccc1O2	0
Cc1cnc(NC(=O)c2ccc3ncoc3c2)c(Br)c1	4
Nc1c(-c2ccccc2)nsc1C(=O)NCCc1cccs1	-5
CC1(C)NC(=O)N(CNc2ccc(Br)cc2)C1=O	-14
Cc1noc(C)c1NS(=O)(=O)c1ccc2c(c1)OCCCO2	1
CC(C)(C)OC(=O)CN(c1cc(F)cc(F)c1)S(=O)(=O)c1ccc2nncn2c1	-7
Cc1cc(NC(=O)[C@@H](c2ccccc2)N2CCCCC2=O)sn1	7
CCC(C(=O)Nc1ccc2c(c1)CN(CCc1ccc(OC)c(OC)c1)C(=O)C(C)O2)c1ccccc1 (stereo not drawn)	94
Cc1c(C(c2ccc(-c3ccccc3Cl)o2)c2c(C)n(C)n(-c3ccccc3)c2=O)c(=O)n(-c2ccccc2)n1C	3
O=C(NCCN1CCCCC1)c1cn2ccnc(-c3ccccc3)c2n1	-1
CCOc1ccc(-c2cc(NC(=O)c3cc(-c4cccnc4)nc4ccccc34)on2)cc1OCC	94
Cc1c(-c2ccc(F)cc2)[nH]c2ccc(CNc3nccc(N(C)C)n3)cc12	29
C[C@H](NS(C)(=O)=O)C(=O)NC(C)(C)Cc1ccccc1Cl	-5
COc1ccc(NC(=O)[C@@H](c2ccc(OC)c(OC)c2)N(Cc2ccccc2)C(=O)Cn2nnc3ccccc32)cc1	-11
COc1ccc(CC(=O)Nc2cc(C)n(-c3cccc(Cl)c3)n2)cc1	81
C[C@H](NC(=O)c1ccc(Cl)o1)c1nnc2n1CCCCC2	-5
